Results published in the supplement of paper PMC7826260.
This is one part of the list. Viral Rep nickase domains cut single-stranded DNA in vitro for 1 h at 37 °C with 3 µM enzyme; only the middle of the 90-letter strands is printed. Values are log2 of uncut reads against the no-enzyme pool; uncut sequences lie near 0, cut ones below; no hit call is given. Shares of all reads are compared, so uncut sequences can rise above 0 when many others are cut.

Columns and labels:
Experiment in all cases: uncleaved DNA left, log2 of reads against the no-enzyme library (log2 ratio); higher = less cleavage (more negative = more Rep cleavage of the k-mer); sequences stand for … in CTCGTCCG…ACCGGAGA
[1] = test system: T1, Rep nickase domain of Muscovy duck circovirus
T1 sequence (residues 1-111 of Rep, tag left off): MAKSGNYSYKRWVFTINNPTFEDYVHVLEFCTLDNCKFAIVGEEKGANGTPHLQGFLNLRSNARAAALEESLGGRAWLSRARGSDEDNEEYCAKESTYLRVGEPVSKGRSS
Description: (§1)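 A pool of 90-nt single-stranded DNAs with seven random bases just before the constant AC of the nick site (name = the seven bases) was cut by 3 µM recombinant His6-SUMO-tagged Rep nickase domain (300 nM DNA, 50 mM HEPES pH 8.0, 50 mM NaCl, 1 mM MnCl2, 1 h, 37 °C, three replicates). Uncut DNA was amplified and sequenced.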

[2] = test system: T2, Rep nickase domain of banana bunchy top virus
T2 sequence (residues 1-94 of Rep, tag left off): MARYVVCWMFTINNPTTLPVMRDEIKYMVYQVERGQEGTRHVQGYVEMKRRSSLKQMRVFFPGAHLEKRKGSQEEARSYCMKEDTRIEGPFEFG
Description: as §1

[3] = test system: T3, Rep nickase domain of cabbage leaf curl virus
T3 sequence (residues 1-116 of Rep, tag left off): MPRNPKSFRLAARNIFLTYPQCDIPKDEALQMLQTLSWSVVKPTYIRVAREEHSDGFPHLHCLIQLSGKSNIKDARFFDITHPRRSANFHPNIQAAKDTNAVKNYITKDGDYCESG
Description: as §1

[4] = test system: T4, Rep nickase domain of chickpea chlorotic dwarf virus
T4 sequence (residues 1-124 of Rep, tag left off): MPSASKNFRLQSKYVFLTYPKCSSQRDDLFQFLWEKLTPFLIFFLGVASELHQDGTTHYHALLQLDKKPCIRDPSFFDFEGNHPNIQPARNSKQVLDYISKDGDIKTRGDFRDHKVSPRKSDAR
Description: as §1

[5] = test system: T5, Rep nickase domain of faba bean necrotic yellows virus
T5 sequence (residues 1-98 of Rep, tag left off): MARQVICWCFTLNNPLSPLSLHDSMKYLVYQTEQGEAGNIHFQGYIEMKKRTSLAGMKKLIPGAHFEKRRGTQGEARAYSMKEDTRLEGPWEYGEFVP
Description: as §1

[6] = test system: T6, Rep nickase domain of maize striate mosaic virus
T6 sequence (residues 1-117 of Rep, tag left off): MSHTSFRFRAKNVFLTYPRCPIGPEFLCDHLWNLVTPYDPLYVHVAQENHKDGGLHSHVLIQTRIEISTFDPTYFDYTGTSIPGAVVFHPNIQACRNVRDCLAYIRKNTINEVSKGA
Description: as §1

[7] = test system: T7, Rep nickase domain of porcine circovirus 2
T7 sequence (residues 2-116 of Rep, tag left off): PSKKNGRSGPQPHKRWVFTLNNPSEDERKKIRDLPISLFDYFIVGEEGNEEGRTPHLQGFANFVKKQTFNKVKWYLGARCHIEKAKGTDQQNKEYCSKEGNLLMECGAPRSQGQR
Description: as §1

[8] = test system: T8, Rep nickase domain of tomato golden mosaic virus
T8 sequence (residues 1-124 of Rep, tag left off): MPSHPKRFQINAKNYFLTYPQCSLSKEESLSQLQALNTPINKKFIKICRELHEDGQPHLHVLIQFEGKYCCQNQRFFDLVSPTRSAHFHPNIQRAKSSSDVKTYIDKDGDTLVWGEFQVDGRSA
Description: as §1

[9] = test system: T9, Rep nickase domain of tomato yellow leaf curl virus
T9 sequence (residues 1-136 of Rep, tag left off): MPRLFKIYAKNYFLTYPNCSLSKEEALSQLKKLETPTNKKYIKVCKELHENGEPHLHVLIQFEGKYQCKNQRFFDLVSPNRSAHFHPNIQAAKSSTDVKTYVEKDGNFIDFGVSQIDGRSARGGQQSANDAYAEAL
Description: as §1

[10] = test system: T10, Rep nickase domain of wheat dwarf virus
T10 sequence (residues 1-137 of Rep, tag left off): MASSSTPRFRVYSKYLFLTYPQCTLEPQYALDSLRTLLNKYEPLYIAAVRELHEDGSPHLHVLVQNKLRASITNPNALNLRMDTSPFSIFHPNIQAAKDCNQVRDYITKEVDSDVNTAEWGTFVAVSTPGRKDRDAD
Description: as §1

Sequence | uncleaved DNA left (log2) [1] | uncleaved DNA left (log2) [2] | uncleaved DNA left (log2) [3] | uncleaved DNA left (log2) [4] | uncleaved DNA left (log2) [5] | uncleaved DNA left (log2) [6] | uncleaved DNA left (log2) [7] | uncleaved DNA left (log2) [8] | uncleaved DNA left (log2) [9] | uncleaved DNA left (log2) [10]
AATTACT | -4.25 | -3.9 | -3.07 | -3.67 | -2.3 | -1.57 | -4.34 | -1.63 | -0.0786 | -1.17
TCTCCTC | -0.194 | -0.159 | 0.132 | 0.075 | 0.00268 | 0.379 | -0.112 | -0.0503 | -0.174 | -0.113
CCTGCCA | -0.0773 | 0.0223 | -0.163 | -0.863 | 0.00498 | -0.634 | -0.0243 | 0.00447 | 0.00822 | -0.136
AGTATAG | 0.0802 | 0.0435 | -0.704 | -0.475 | 0.0545 | -1.2 | 0.178 | 0.0611 | 0.0853 | -0.0343
TCGGCCC | 0.0867 | 0.037 | 0.177 | 0.134 | 0.041 | 0.0448 | -0.129 | -0.0578 | 0.0619 | 0.00557
CTGCCTA | -0.106 | -0.0652 | -0.154 | -0.789 | -0.0615 | -0.764 | -0.231 | -0.0925 | -0.00845 | -0.0694
TTTATAG | 0.126 | 0.0501 | -0.644 | -0.7 | 0.168 | -1.09 | 0.16 | 0.04 | 0.0258 | -0.0532
CTGAAGC | -0.0574 | -0.0401 | -0.437 | -0.638 | -0.0708 | -1.05 | -0.0404 | -0.0431 | -0.0227 | -0.0338
CCCAGAA | 0.14 | 0.0969 | 0.147 | 0.0126 | 0.191 | -0.556 | 0.0116 | 0.134 | 0.0321 | 0.0527
CATTAAC | -0.01 | -0.0497 | -0.491 | -1.79 | 0.00039 | -1.02 | 0.0748 | -0.0873 | 0.0304 | -0.167
GCCTTTG | 0.0724 | -0.0497 | -0.164 | -0.167 | -0.0893 | -0.671 | 0.0269 | 0.0276 | -0.0491 | -0.0554
CGAGAAA | 0.164 | 0.125 | 0.11 | 0.262 | 0.146 | -0.136 | 0.0148 | 0.2 | 0.126 | 0.15
TACGATA | -0.072 | -0.0817 | -0.404 | -2.52 | -0.0154 | -0.504 | -0.312 | -0.104 | -0.132 | -0.0905
ACGATAA | 0.05 | -0.0145 | -0.212 | -0.138 | 0.114 | -0.238 | 0.131 | -0.00704 | -0.0589 | -0.0805
AACCACA | -0.14 | 0.0247 | -0.109 | -2.33 | -0.0184 | -0.635 | -0.268 | 0.01 | -0.0542 | -0.057
GATAGCC | -0.0428 | 0.013 | 0.0893 | 0.405 | 0.00794 | -0.211 | 0.162 | -0.0508 | 0.0831 | 0.094
AGGGTCT | -0.0281 | 0.0195 | 0.18 | 0.703 | -0.112 | 1.27 | -0.0611 | 0.0149 | -0.0224 | -0.112
TGCCCTG | 0.0593 | -0.124 | 0.0117 | 0.253 | -0.107 | 0.995 | -0.0494 | -0.131 | -0.0291 | -0.0215
GACCTTA | -0.0729 | 0.0238 | 0.0431 | -0.398 | -0.128 | 0.567 | -0.00688 | 0.0384 | -0.0215 | 0.113
ACCGAGC | 0.0873 | -0.0317 | -0.366 | -0.0132 | -0.00908 | -0.613 | 0.0554 | 0.0459 | -0.0406 | 0.0215
TTCTGGG | -0.0465 | -0.097 | -0.275 | -0.369 | -0.0186 | -0.625 | 0.0372 | -0.106 | 0.00158 | -0.016
AAATTAT | -2.77 | -0.0123 | -3.67 | -3.05 | 0.122 | -2.74 | -3.78 | -3.48 | -0.0745 | -3.38
CAGCTGA | 0.0869 | 0.013 | 0.466 | 1.58 | -0.0353 | 1.56 | 0.293 | 0.185 | 0.0247 | 0.132
AGCAACA | 0.0918 | -0.0363 | 0.0284 | -0.513 | -0.0636 | 0.735 | -0.608 | -0.0279 | -0.00162 | 0.0511
CTGCCAT | 0.115 | 0.0715 | 0.0256 | -0.176 | 0.0263 | -0.124 | -0.00551 | 0.0191 | 0.0433 | 0.0748
GTAGATA | 0.0894 | 0.164 | 0.342 | 0.845 | 0.15 | 1.6 | 0.199 | 0.144 | 0.136 | 0.141
TGGGTCC | 0.0313 | 0.107 | 0.697 | 1.33 | -0.0104 | 1.82 | 0.218 | -0.0133 | 0.0603 | 0.127
TAACCGG | 0.0453 | 0.107 | 0.488 | 1.36 | 0.0588 | 1.79 | 0.101 | 0.138 | 0.0723 | 0.149
GAAGCGA | 0.0958 | 0.106 | -0.63 | -0.19 | 0.0956 | -0.708 | 0.156 | 0.0584 | 0.127 | 0.0714
GCCGAAC | -0.0145 | -0.0246 | 0.0989 | 0.317 | 0.0404 | 0.172 | -0.056 | -0.067 | -0.0659 | 0.00203
